# The antibiotic and cytotoxicity screens of Wong et al. (2023)
# Some of the results follow.
# System: HSkMC (human skeletal muscle cells)
# Assay: cytotoxicity call (relative viability < 0.9)
# Settings: 10 µM
row,Structure (SMILES),cytotoxicity call
1,CCOC(=O)c1cc2c(c(-c3cccc(Br)c3)n1)[C@@H](CCOC)N([S@](=O)C(C)(C)C)C2,inactive
2,CCS(=O)(=O)Nc1ccc2c(c1)C(=O)N(C)C[C@@H](OC)[C@H](C)CN(Cc1ccccn1)[C@@H](C)CO2,inactive
3,C[C@@H]1CN([C@H](C)CO)C(=O)c2cc(NC(=O)Nc3ccc(C(F)(F)F)cc3)ccc2O[C@@H](C)CCCCO[C@@H]1CN(C)Cc1ccncc1,active
4,Cc1noc(C)c1S(=O)(=O)N(C)C[C@@H]1Oc2ccc(NS(=O)(=O)c3ccc(Cl)cc3)cc2CC(=O)N([C@H](C)CO)C[C@H]1C,inactive
5,C[C@@H]1CN([C@@H](C)CO)C(=O)CCCn2nncc2CO[C@H]1CN(C)C(=O)Nc1ccc2c(c1)OCO2,inactive
6,CO[C@@H]1CN(C)C(=O)c2ccc(NC(=O)CC(F)(F)F)cc2OC[C@H](C)N(S(=O)(=O)c2cn(C)cn2)C[C@H]1C,inactive
7,C[C@@H]1CCCCO[C@@H](CN(C)CC2CC2)[C@@H](C)CN([C@H](C)CO)C(=O)c2cc(NC(=O)Cc3ccccc3)ccc2O1,inactive
8,C[C@@H]1CN([C@H](C)CO)C(=O)Cc2cc(NC(=O)NC3CCCCC3)ccc2O[C@@H]1CN(C)S(C)(=O)=O,inactive
9,C[C@@H]1CN([C@H](C)CO)C(=O)c2cc(NS(=O)(=O)c3ccc(F)cc3)ccc2O[C@@H](C)CCCCO[C@H]1CN(C)Cc1ccc2c(c1)OCO2,inactive
10,C[C@@H]1CN([C@@H](C)CO)C(=O)Cc2cc(NC(=O)Cn3cnnn3)ccc2O[C@@H]1CN(C)C(=O)Nc1ccc(C(F)(F)F)cc1,inactive
11,C[C@@H]1CCCCO[C@H](CN(C)S(=O)(=O)c2cccs2)[C@@H](C)CN([C@H](C)CO)C(=O)c2cc(NS(=O)(=O)c3cn(C)cn3)ccc2O1,inactive
12,COc1oc(C(=O)NC2CCCCC2)c(-c2ccc(Cl)cc2)c1S(=O)(=O)c1ccc2c(c1)OCCO2,inactive
13,Cc1noc(C)c1NC(=O)Nc1ccc2c(c1)CC(=O)N([C@H](C)CO)C[C@H](C)[C@@H](CN(C)C(=O)Nc1ccc(C(F)(F)F)cc1)O2,inactive
14,C[C@H](CO)N1C[C@H](C)[C@@H](CN(C)S(=O)(=O)c2ccc(F)cc2)Oc2ccc(NS(=O)(=O)c3cn(C)cn3)cc2C1=O,inactive
15,CC(C)NC(=O)Nc1ccc2c(c1)CC(=O)N([C@@H](C)CO)C[C@@H](C)[C@H](CN(C)C(=O)Nc1ccc3c(c1)OCO3)O2,inactive
16,C[C@@H]1CCCCO[C@H](CN(C)S(=O)(=O)c2ccccc2)[C@@H](C)CN([C@@H](C)CO)C(=O)c2cc(NC(=O)Nc3ccccc3)ccc2O1,inactive
17,Cc1noc(C)c1NC(=O)Nc1cccc2c1O[C@H](CN(C)Cc1ccc(C(F)(F)F)cc1)[C@@H](C)CN([C@@H](C)CO)C2=O,inactive
18,CC(C=CC1=C(C)CCCC1(C)C)=CC=CC(C)=CC(=O)O,inactive
19,C=CCN1C(=O)[C@]2(O[C@H](CCO)[C@@H]([Si](C)(C)c3ccc(OC)cc3)[C@@H]2C)c2cc(N3C(=O)c4cccc5cccc3c45)ccc21,active
20,COc1ccc(NC(=O)Nc2ccc3c(c2)C(=O)N([C@H](C)CO)C[C@H](C)[C@H](CN(C)S(=O)(=O)c2ccccc2)OCCCC[C@H](C)O3)cc1,inactive
21,C[C@H](CO)N1C[C@H](C)[C@H](CN(C)S(=O)(=O)c2cccc(F)c2)Oc2ncc(C#CC3(O)CCCC3)cc2C1=O,inactive
22,CC(C)NC(=O)N(C)C[C@H]1OCCCC[C@H](C)Oc2ccc(NC(=O)Nc3cccc4ccccc34)cc2C(=O)N([C@H](C)CO)C[C@@H]1C,inactive
23,Cc1cc(C(=O)Nc2cccc3c2O[C@H](CN(C)S(=O)(=O)c2c(C)noc2C)[C@H](C)CN([C@H](C)CO)C3=O)n(C)n1,inactive
24,O=C1CCCNc2ccc(Cl)cc21,inactive
25,C[C@@H]1CCCCO[C@H](CN(C)CC2CCCCC2)[C@H](C)CN([C@H](C)CO)C(=O)c2cc(NC(=O)Nc3ccc(C(F)(F)F)cc3)ccc2O1,active
26,C[C@H]1CN([C@@H](C)CO)C(=O)CCCn2cc(nn2)CO[C@H]1CN(C)C(=O)c1cc(-c2ccccc2)on1,inactive
27,C[C@@H]1CN([C@H](C)CO)C(=O)Cc2cc(NS(=O)(=O)c3ccccc3)ccc2O[C@@H]1CN(C)Cc1ccc(Oc2ccccc2)cc1,active

# System: HepG2
# Assay: cytotoxicity call (relative viability < 0.9)
# Settings: 10 µM
row,Structure (SMILES),cytotoxicity call
1,O=C(Cc1ccncc1)NCC[C@H]1CC[C@@H](NC(=O)C2CCOCC2)[C@@H](CO)O1,inactive
2,C[C@@H]1CN([C@@H](C)CO)C(=O)c2cc(NC(=O)c3ccccc3)ccc2O[C@@H](C)CCCCO[C@H]1CN(C)C(=O)CCC(F)(F)F,inactive
3,C#CC1(O)CCC2C3CCc4cc(OC)ccc4C3CCC21C (stereo not drawn),active
4,C[C@H](CO)N1C[C@H](C)[C@@H](CN(C)Cc2ccc(Cl)c(Cl)c2)Oc2ccc(NC(=O)C3CCCCC3)cc2CC1=O,inactive
5,CN(C)CC(=O)N[C@@H]1CC[C@H](CCn2cc(CN(C)C)nn2)O[C@@H]1CO,inactive
6,CCC1(C)CC(=O)NC1=O (stereo not drawn),inactive
7,Nc1ccccc1CO,active
8,[N-]=[N+]=N[C@]1(CO)O[C@@H](n2ccc(N)nc2=O)[C@H](O)[C@@H]1O,inactive
9,C[C@H](CO)N1C[C@H](C)[C@H](CN(C)S(=O)(=O)c2cccc(F)c2)Oc2ncc(Br)cc2C1=O,inactive
10,C[C@H](CO)N1C[C@H](C)[C@H](CN(C)S(=O)(=O)c2cn(C)cn2)OCCCC[C@H](C)Oc2ccc(NS(=O)(=O)c3ccc(F)cc3)cc2C1=O,inactive
11,C[C@H](CO)N1C[C@H](C)[C@H](CN(C)C(=O)Nc2ccccc2)OCCCC[C@H](C)Oc2ccc(NC(=O)c3ccccc3)cc2C1=O,inactive
12,CC(C)NC(=O)N(C)C[C@H]1Oc2ccc(NS(=O)(=O)c3cn(C)cn3)cc2CC(=O)N([C@@H](C)CO)C[C@H]1C,inactive
13,C[C@H]1CN([C@@H](C)CO)C(=O)Cc2cc(NS(=O)(=O)c3ccc(Cl)cc3)ccc2O[C@@H]1CN(C)Cc1ccc(C(=O)Nc2ccccc2N)cc1,inactive
14,CCOC(=O)c1cc2c(c(-c3cccc(Br)c3)n1)[C@@H](CCOC)N([S@](=O)C(C)(C)C)C2,inactive
15,CCS(=O)(=O)Nc1ccc2c(c1)C(=O)N(C)C[C@@H](OC)[C@H](C)CN(Cc1ccccn1)[C@@H](C)CO2,inactive
16,C[C@@H]1CN([C@H](C)CO)C(=O)c2cc(NC(=O)Nc3ccc(C(F)(F)F)cc3)ccc2O[C@@H](C)CCCCO[C@@H]1CN(C)Cc1ccncc1,active
17,Cc1noc(C)c1S(=O)(=O)N(C)C[C@@H]1Oc2ccc(NS(=O)(=O)c3ccc(Cl)cc3)cc2CC(=O)N([C@H](C)CO)C[C@H]1C,inactive
18,C[C@@H]1CN([C@@H](C)CO)C(=O)CCCn2nncc2CO[C@H]1CN(C)C(=O)Nc1ccc2c(c1)OCO2,inactive

row,Structure (SMILES),cytotoxicity call
1,CO[C@@H]1CN(C)C(=O)c2ccc(NC(=O)CC(F)(F)F)cc2OC[C@H](C)N(S(=O)(=O)c2cn(C)cn2)C[C@H]1C,inactive
2,C[C@@H]1CCCCO[C@@H](CN(C)CC2CC2)[C@@H](C)CN([C@H](C)CO)C(=O)c2cc(NC(=O)Cc3ccccc3)ccc2O1,inactive
3,C[C@@H]1CN([C@H](C)CO)C(=O)Cc2cc(NC(=O)NC3CCCCC3)ccc2O[C@@H]1CN(C)S(C)(=O)=O,active
4,C[C@@H]1CN([C@H](C)CO)C(=O)c2cc(NS(=O)(=O)c3ccc(F)cc3)ccc2O[C@@H](C)CCCCO[C@H]1CN(C)Cc1ccc2c(c1)OCO2,inactive
5,C[C@@H]1CN([C@@H](C)CO)C(=O)Cc2cc(NC(=O)Cn3cnnn3)ccc2O[C@@H]1CN(C)C(=O)Nc1ccc(C(F)(F)F)cc1,inactive
6,C[C@@H]1CCCCO[C@H](CN(C)S(=O)(=O)c2cccs2)[C@@H](C)CN([C@H](C)CO)C(=O)c2cc(NS(=O)(=O)c3cn(C)cn3)ccc2O1,inactive
7,COc1oc(C(=O)NC2CCCCC2)c(-c2ccc(Cl)cc2)c1S(=O)(=O)c1ccc2c(c1)OCCO2,inactive
8,Cc1noc(C)c1NC(=O)Nc1ccc2c(c1)CC(=O)N([C@H](C)CO)C[C@H](C)[C@@H](CN(C)C(=O)Nc1ccc(C(F)(F)F)cc1)O2,inactive
9,C[C@H](CO)N1C[C@H](C)[C@@H](CN(C)S(=O)(=O)c2ccc(F)cc2)Oc2ccc(NS(=O)(=O)c3cn(C)cn3)cc2C1=O,inactive
10,CC(C)NC(=O)Nc1ccc2c(c1)CC(=O)N([C@@H](C)CO)C[C@@H](C)[C@H](CN(C)C(=O)Nc1ccc3c(c1)OCO3)O2,inactive
11,C[C@@H]1CCCCO[C@H](CN(C)S(=O)(=O)c2ccccc2)[C@@H](C)CN([C@@H](C)CO)C(=O)c2cc(NC(=O)Nc3ccccc3)ccc2O1,inactive
12,Cc1noc(C)c1NC(=O)Nc1cccc2c1O[C@H](CN(C)Cc1ccc(C(F)(F)F)cc1)[C@@H](C)CN([C@@H](C)CO)C2=O,inactive
13,CC(C=CC1=C(C)CCCC1(C)C)=CC=CC(C)=CC(=O)O,inactive
14,C=CCN1C(=O)[C@]2(O[C@H](CCO)[C@@H]([Si](C)(C)c3ccc(OC)cc3)[C@@H]2C)c2cc(N3C(=O)c4cccc5cccc3c45)ccc21,active
15,COc1ccc(NC(=O)Nc2ccc3c(c2)C(=O)N([C@H](C)CO)C[C@H](C)[C@H](CN(C)S(=O)(=O)c2ccccc2)OCCCC[C@H](C)O3)cc1,inactive
16,C[C@H](CO)N1C[C@H](C)[C@H](CN(C)S(=O)(=O)c2cccc(F)c2)Oc2ncc(C#CC3(O)CCCC3)cc2C1=O,inactive
17,CC(C)NC(=O)N(C)C[C@H]1OCCCC[C@H](C)Oc2ccc(NC(=O)Nc3cccc4ccccc34)cc2C(=O)N([C@H](C)CO)C[C@@H]1C,inactive
18,Cc1cc(C(=O)Nc2cccc3c2O[C@H](CN(C)S(=O)(=O)c2c(C)noc2C)[C@H](C)CN([C@H](C)CO)C3=O)n(C)n1,inactive
